{"source": "the supplement of paper PMC3334620", "note": "In all, about 33,000 sequences were measured (“E-score (-0.5 to 0.5)”: median about -0.016, highest 2% from about 0.32 on). The list shows a part of the results.", "data": [{"biological_target": "T1, Stp1 (UniProt B3LFK1)", "T1 sequence": "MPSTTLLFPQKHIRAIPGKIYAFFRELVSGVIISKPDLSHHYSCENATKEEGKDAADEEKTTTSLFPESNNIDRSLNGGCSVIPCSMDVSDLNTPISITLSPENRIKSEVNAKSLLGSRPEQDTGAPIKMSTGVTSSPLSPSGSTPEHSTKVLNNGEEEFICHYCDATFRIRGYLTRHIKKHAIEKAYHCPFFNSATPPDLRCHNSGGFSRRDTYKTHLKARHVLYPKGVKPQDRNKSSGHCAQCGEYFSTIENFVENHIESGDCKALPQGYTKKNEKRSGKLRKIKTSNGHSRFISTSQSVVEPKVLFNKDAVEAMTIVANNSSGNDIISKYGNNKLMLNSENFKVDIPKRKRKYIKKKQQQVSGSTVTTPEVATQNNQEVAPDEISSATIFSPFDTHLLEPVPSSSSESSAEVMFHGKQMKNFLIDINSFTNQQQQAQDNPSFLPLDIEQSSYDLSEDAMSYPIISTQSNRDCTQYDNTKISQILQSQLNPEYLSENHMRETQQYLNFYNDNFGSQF", "assay": "PBM E-score (8-mer binding enrichment) (E-score (-0.5 to 0.5)); higher = stronger / more preferred TF binding; most listed sequences are background and not binding sites", "conditions": "protein concentration: 200 nM; construct: GST-full length", "in_short": "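PURExpress in vitro transcription/translation supplied GST-tagged yeast transcription factors, either full-length or DNA-binding domain. Applied at about 100-200 nM to universal all-10-mer Agilent arrays double-stranded by primer extension, the bound protein was detected with fluorescent anti-GST. E-scores, modified Wilcoxon-Mann-Whitney statistics, were given by the Universal PBM Analysis Suite to ungapped eight-base words pooled with their reverse complements after masliner normalisation.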", "values": [{"sequence": "AGTGGGTA", "PBM E-score": -0.199}, {"sequence": "AGTCTGCG", "PBM E-score": -0.224}, {"sequence": "GAACGGGC", "PBM E-score": -0.0577}, {"sequence": "CCTCCTCG", "PBM E-score": -0.21}, {"sequence": "GAAGCGTC", "PBM E-score": -0.0144}, {"sequence": "CAGGTACC", "PBM E-score": -0.233}, {"sequence": "AGCCTGGC", "PBM E-score": -0.106}, {"sequence": "CGGAACGC", "PBM E-score": 0.0374}, {"sequence": "GCAGGGGA", "PBM E-score": -0.395}, {"sequence": "GTAGCCCA", "PBM E-score": -0.0968}, {"sequence": "CACCCCTA", "PBM E-score": -0.147}, {"sequence": "CTGCCTGC", "PBM E-score": -0.125}, {"sequence": "AGTAGACC", "PBM E-score": -0.055}, {"sequence": "GATGCGGC", "PBM E-score": 0.47}, {"sequence": "AGTTTAAC", "PBM E-score": -0.0287}, {"sequence": "CGAGACTA", "PBM E-score": -0.219}, {"sequence": "CGCTTGGC", "PBM E-score": 0.0526}, {"sequence": "CCGGAGTC", "PBM E-score": -0.144}, {"sequence": "CGGACCTC", "PBM E-score": -0.128}, {"sequence": "GCTATAGA", "PBM E-score": 0.0356}, {"sequence": "CAATATGA", "PBM E-score": -0.0206}, {"sequence": "CACCGCCG", "PBM E-score": 0.147}, {"sequence": "CAAGCTCG", "PBM E-score": -0.164}, {"sequence": "ATAAACGC", "PBM E-score": 0.0595}, {"sequence": "CCGTTGGC", "PBM E-score": 0.164}, {"sequence": "CTGTATCC", "PBM E-score": 0.00294}, {"sequence": "GCTAAGAC", "PBM E-score": -0.00858}, {"sequence": "AATCTCTA", "PBM E-score": -0.0516}, {"sequence": "CGTTGCAA", "PBM E-score": 0.16}, {"sequence": "ATACCCTA", "PBM E-score": -0.0607}, {"sequence": "GTTCGTCA", "PBM E-score": -0.108}, {"sequence": "AGCCCTGC", "PBM E-score": 0.0478}, {"sequence": "AGGGCCAT", "PBM E-score": -0.13}, {"sequence": "CGTGGGGA", "PBM E-score": -0.2}, {"sequence": "TAAACCGA", "PBM E-score": -0.0738}, {"sequence": "CCGATCAC", "PBM E-score": 0.0524}, {"sequence": "CTAGGGCC", "PBM E-score": -0.0363}, {"sequence": "CAGATGAG", "PBM E-score": -0.00018}, {"sequence": "TACGGCTA", "PBM E-score": 0.349}, {"sequence": "AGCCTTCC", "PBM E-score": -0.139}, {"sequence": "ATCGGTTC", "PBM E-score": -0.0639}, {"sequence": "AGCCATGG", "PBM E-score": -0.0348}, {"sequence": "CTCATGTC", "PBM E-score": -0.116}, {"sequence": "GCAGGTGA", "PBM E-score": 0.0104}, {"sequence": "AACGGCTT", "PBM E-score": 0.366}, {"sequence": "GTAGTTAA", "PBM E-score": 0.106}, {"sequence": "ACTTAGGA", "PBM E-score": -0.242}, {"sequence": "GCCTTTGA", "PBM E-score": 0.00858}, {"sequence": "GACTGTAA", "PBM E-score": 0.0631}, {"sequence": "GGAGCCCA", "PBM E-score": -0.207}, {"sequence": "AGAGCTGG", "PBM E-score": -0.143}, {"sequence": "GGGGCCAA", "PBM E-score": -0.335}, {"sequence": "AGCTTGGC", "PBM E-score": -0.159}, {"sequence": "ACTCATTG", "PBM E-score": -0.196}, {"sequence": "AGCACGCG", "PBM E-score": 0.176}, {"sequence": "ACCGGGAA", "PBM E-score": 0.0212}, {"sequence": "AGGGGTAC", "PBM E-score": -0.248}, {"sequence": "CTATTCAA", "PBM E-score": -0.0513}, {"sequence": "GTGACACA", "PBM E-score": 0.0384}, {"sequence": "GGGAGTAA", "PBM E-score": 0.0566}, {"sequence": "CAGACGCG", "PBM E-score": -0.115}, {"sequence": "CAGGCCAC", "PBM E-score": -0.0801}, {"sequence": "AGTAGATG", "PBM E-score": -0.022}, {"sequence": "CCGCTAAG", "PBM E-score": 0.0446}, {"sequence": "CGGGCCCG", "PBM E-score": -0.0471}, {"sequence": "AGCTCCGA", "PBM E-score": -0.202}, {"sequence": "GCGTCTCC", "PBM E-score": 0.168}, {"sequence": "CTTCGTTC", "PBM E-score": -0.283}, {"sequence": "CGAGACCC", "PBM E-score": -0.0122}, {"sequence": "CGTGTTCC", "PBM E-score": -0.0411}, {"sequence": "GAGACGAA", "PBM E-score": -0.0792}, {"sequence": "AAGAACTT", "PBM E-score": -0.0275}, {"sequence": "ACCCAACC", "PBM E-score": -0.0719}, {"sequence": "TCGGCAGA", "PBM E-score": -0.0589}, {"sequence": "GCGGTAGC", "PBM E-score": -0.0371}, {"sequence": "ATACGGTA", "PBM E-score": 0.233}, {"sequence": "ATACCACA", "PBM E-score": 0.0264}, {"sequence": "CACCTGGC", "PBM E-score": -0.22}, {"sequence": "GAGTAGGC", "PBM E-score": 0.0866}, {"sequence": "AGGTGCCA", "PBM E-score": -0.0228}, {"sequence": "CTTGATGC", "PBM E-score": 0.0431}, {"sequence": "AGATGGAG", "PBM E-score": -0.0947}, {"sequence": "GAAAAAAC", "PBM E-score": 0.101}, {"sequence": "CTTTCTCA", "PBM E-score": 0.194}, {"sequence": "ATAATGAT", "PBM E-score": 0.166}, {"sequence": "AAATCAAG", "PBM E-score": 0.161}]}]}
